# Test results reported in PubChem BioAssay AID504706 (National Center for Advancing Translational Sciences (NCATS), 2011).
# About 200 (0.062%) of roughly 320,000 compounds were called active. The inconclusive results got no clear call from the source; some entries with a clear call stand among them for comparison. Calls follow the shape of the dose curve; as a rule, active = well fitted activation curve with a large enough effect; inconclusive = small, poorly fitted or top-dose-only effect; inactive = no such curve, though single readings can be large or run the other way. Potencies of inconclusive entries are left out as doubtful fits.
# Test: qHTS assay for re-activators of p53 using a Luc reporter; also: nearly all actives have a fitted effect of over 45% in size
# Conditions: H1299 p53-A138V BP100-luciferase reporter, luminescence, 24 h; series mostly up to 92.2 µM
# Summary of the method: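 p53-null H1299 cells stably carrying temperature-sensitive p53-A138V and a BP100-luciferase reporter were pinned with compounds (4-point, 1:5 series) and held 24 hrs at 37 deg C. Luminescence was read 10 min after detection reagent.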
# Potency is read from the fitted curve at half-maximal effect; tags tell the direction and shape of the fitted curve.
row,Compound,Potency
1,CCC(=NCCc1ccccc1)c1c(O)n(C)c(=O)n(C)c1=O,inactive
2,Cc1nc2ccccc2c(=O)n1-c1ccccn1,inactive
3,CCCCn1c(=O)c(C(=O)Nc2ccccc2S(N)(=O)=O)c(O)c2ccccc21,"inconclusive [activator, single point]"
4,Cc1ccccc1N1CCN(Cc2ccc3c(c2)OCO3)CC1,"inconclusive [activator, single point]"
5,ClC1=C(Cl)C(Cl)=C(Cl)C1=C/C=C/c1ccccc1,"inconclusive [activator, partial curve, poor fit]"
6,O=C(N/N=C/c1c(O)n(C2CCCCC2)c(=S)[nH]c1=O)c1ccccc1O,"inconclusive [activator, partial curve, poor fit]"
7,O=P(O)(O)COc1ccccc1O,inactive
8,O=C(Oc1ccc2cc(Br)ccc2c1)N1CCCCCC1,"inconclusive [activator, partial curve, poor fit]"
9,Cc1ccc(C(=O)Nc2nc3ccccc3n2CCN2CCCC2)cc1,"inconclusive [activator, partial curve, poor fit]"
10,COc1ccc(OC(=O)Nc2ccccc2)cc1,"inconclusive [activator, partial curve]"
11,CC1(C)CSC(Nc2ccc(F)c(Cl)c2)=N1,inactive
12,Cn1cnc([N+](=O)[O-])c1Sc1ccc([N+](=O)[O-])cc1,inactive
13,FC(F)(F)c1ccc(CNCCc2ccc3c(c2)OCO3)cc1,inactive
14,COc1ccc(OCC(=O)N2CCN(CC3CC4C=CC3C4)CC2)cc1 (stereo not given),"inconclusive [activator, single point]"
15,Cc1ccccc1-n1c(O)c(/C=C2/C(c3ccccc3)=Nc3ccccc32)c(=O)[nH]c1=O,"inconclusive [activator, full curve, poor fit]"
16,O=C(N/N=C/c1c(O)n(C2CCCCC2)c(=S)[nH]c1=O)c1ccccc1,"inconclusive [activator, partial curve, poor fit]"
17,O=C1CC(c2cccnc2)=NN1c1ccccc1,inactive
18,O=C(CSC1c2ccccc2-c2ccccc21)N/N=C/c1ccccc1O,"inconclusive [activator, full curve, poor fit]"
19,CC/C(=C\C=C\[C@@H]1C=C[C@@H]2CCC[C@H]2[C@@H]1C(=O)c1ccc[nH]1)[C@@H]1O[C@@H]([C@@H](C)C(=O)O)CC[C@@H]1C,"inconclusive [activator, single point]"
20,CC1CC(C)CN(CC(=O)c2ccc(OC(F)F)cc2)C1 (stereo not given),"inconclusive [activator, full curve, poor fit]"
21,O=C(O)C1(c2ccc(Cl)cc2)CCC1,"inconclusive [activator, single point]"
22,O=C(CN1C(=O)COc2ccccc21)N1CCC2(CC1)OCCO2,"inconclusive [activator, single point]"
23,COc1ccc(/C=C2\C(=O)NC(=S)N(C)C2=O)cc1C,inactive
24,O=C(Nc1cccc(Cl)c1)c1c(O)c2c(n(Cc3ccco3)c1=O)CCCC2,"inconclusive [activator, partial curve, poor fit]"

row,Compound,Potency
1,COc1ccc(N2C(=O)NC(=O)/C(=C/c3cccc(OC(=O)c4cccs4)c3)C2=O)cc1Cl,"inconclusive [activator, single point]"
2,CN1C(=O)C(=Cc2ccccc2OCc2ccc(C(=O)O)cc2)C(=O)N(C)C1=O,inactive
3,C[C@]12CC[C@H](N)CC1=CCC1C2CC[C@@]2(C)C1CC[C@@H]2O (stereo not given in full),"inconclusive [activator, single point]"
4,CC(=O)Nc1ccccc1C(=O)OCC(=O)c1ccccc1Cl,"inconclusive [activator, partial curve, poor fit]"
5,O=C(Nc1ccc2c(c1)OCO2)c1cn(Cc2ccc(F)cc2)nn1,inactive
6,C[n+]1c(-c2ccccc2)cc(-c2ccc(Cl)cc2)cc1-c1ccccc1,inactive
7,O=c1[nH]c(=S)n(C2CC2)c(O)c1/C=N/Nc1cccc2ccccc12,"inconclusive [activator, partial curve, poor fit]"
8,O=C(c1cc(F)ccc1F)C1CCCN(Cc2cc(Cl)ccc2O)C1 (stereo not given),"inconclusive [activator, partial curve, poor fit]"
9,c1ccc(OCc2ccc(CCCN3CCOCC3)cc2)cc1,"inconclusive [activator, single point]"
10,O=C(Nc1ccc(Cl)cc1)Nc1nccs1,"inconclusive [activator, partial curve, poor fit]"
11,O=C(c1ccc2c(c1)OCO2)N1CCC2(CC1)OCCO2,inactive
12,COc1ccccc1N1C(=O)NC(=O)C2(Cc3cc(C)ccc3N(C)C2)C1=O (stereo not given),inactive
13,CC(=O)Nc1nnc(CCN(CCc2nnc(NC(C)=O)s2)[N+](=O)[O-])s1,inactive
14,COc1ccc(Cn2c(O)c(/C=N/NC(=O)c3ccccc3O)c(=O)[nH]c2=O)cc1,inactive
15,COc1cccc(/C=C2\N=C(c3cncc(Br)c3)OC2=O)c1,"inconclusive [activator, full curve, poor fit]"
16,C[C@]12CCC3C(CC[C@H]4C[C@@H](O)CC[C@]34C)[C@H]1C=CC2=O (stereo not given in full),"inconclusive [activator, single point]"
17,COC(=O)C1=C(c2c(C)noc2C)C[C@@H]2CC[C@H]1N2C(=O)NC1CC1,"inconclusive [activator, full curve, poor fit]"
18,Cc1ccc(-n2c(O)c(/C=N/N3CCCCC3c3cccnc3)c(=O)[nH]c2=S)cc1 (stereo not given),"inconclusive [activator, full curve, poor fit]"
19,Cc1ccnc(SCc2nc3ccccc3s2)n1,"inconclusive [activator, partial curve, poor fit]"
20,COc1ccc(N=Nc2c(O)[nH]c(=S)[nH]c2=O)cc1,inactive
21,COc1ccc(-c2nn(CCC#N)cc2C(=O)Nc2ccccc2Br)cc1[N+](=O)[O-],inactive
22,COC(=O)c1ccc(COC(=O)c2ccccn2)cc1,"inconclusive [activator, partial curve, poor fit]"
23,Cc1ccc2cc3cc(C(=O)N4CCC5(CC4)OCCO5)oc3nc2c1,inactive
24,O=C(O)CCn1cc(C=C2C(=O)NC(=S)NC2=O)c(-c2ccccc2)n1,inactive

row,Compound,Potency
1,O=C1NC(=S)N(c2ccccc2)C(=O)/C1=C/c1ccco1,inactive
2,CC(C)Oc1ccc(Cc2c(O)[nH]c(=O)[nH]c2=O)cc1,inactive
3,Cc1c(N=Nc2c(O)n(Cc3ccccc3)c(=O)[nH]c2=O)c(=O)n(-c2ccccc2)n1C,"inconclusive [activator, partial curve, poor fit]"
4,CCOC(=O)C1SC2(C(F)F)CC1(O)c1c(c(OC)c3occc3c1OC)O2 (stereo not given),"inconclusive [activator, single point]"
5,NC(Cc1nc2ccccc2[nH]1)c1ccc(Cl)cc1 (stereo not given),"inconclusive [activator, full curve, poor fit]"
6,Cc1ccc(-c2nc3ccccc3c(=O)n2-c2ccc(O)cc2)cc1,inactive
7,CC1=C/C(=N\NC(=S)NCCc2ccccc2)CC(C)(C)C1,"inconclusive [activator, partial curve, poor fit]"
8,Fc1ccc(C(OCCN2CCCC2)c2ccc(Br)cc2)cc1 (stereo not given),inactive
9,N#Cc1cc2c(nc1SCC(=O)Nc1cc(Cl)ccc1Cl)C1CCN2CC1,active: 44.7 µM
10,CC(C)(C)n1cc(C(=O)c2ccc3ccccc3c2O)cn1,"inconclusive [activator, partial curve, poor fit]"
11,O=C(CNC(=O)c1ccc(Cl)cc1)Nc1ccc(Br)cc1C(=O)c1ccccc1,inactive
12,Clc1ccc(-c2nc3ccc(Cl)cn3c2CN2CCOCC2)cc1,"inconclusive [activator, partial curve, poor fit]"
13,c1cc(CNCCc2ccc3c(c2)OCO3)ccn1,"inconclusive [activator, single point]"
14,COC(=O)C1=C(c2cccc(C#N)c2)C[C@@H]2CC[C@H]1N2C(=O)NCC1CC1,"inconclusive [activator, single point]"
15,COc1ccc(/C=C2\C(=O)NC(=O)N(Cc3ccccc3)C2=O)c(OC)c1OC,inactive
16,Cn1c2ccccc2c2cnn(CC(=O)N3CCC4(CC3)OCCO4)c(=O)c21,"inconclusive [activator, full curve, poor fit]"
17,O=C1/C(=C/c2ccccc2)C[C@@]2(O)[C@H]3Cc4ccc(O)c5c4[C@@]2(CCN3CC2CC2)C1O5 (stereo not given in full),inactive
18,Cc1cc(C(=O)N=Nc2c(O)n(C)c3ccccc23)c(C)o1,"inconclusive [activator, full curve, poor fit]"
19,COC(=O)c1ccc(-c2nc(-c3ccc(Br)o3)no2)cc1,"inconclusive [activator, full curve, poor fit]"
20,Cc1cc(NC(=O)c2noc3c2CCCCC3)no1,"inconclusive [activator, partial curve, poor fit]"
21,COC(=O)C1=C(c2ccc(OC)c(OC)c2)C[C@@H]2CC[C@H]1N2C(=O)NCc1cc(C)oc1C(F)(F)F,"inconclusive [activator, single point]"
22,CC1CCN(CC(=O)c2ccccc2Cl)CC1,"inconclusive [activator, partial curve, poor fit]"
